Measured values taken from PubChem BioAssay (NCI).
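Results reflect a 48-hour exposure of cells in 96-well plates to compound at five concentrations. GI50 marks 50% less growth. At the TGI there is no net growth.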

Tested on: NCI-H322M lung
Assay: NCI anticancer screen, dose series, 48 h

Row | SMILES | GI50 | TGI
1 | COc1ccc(C2(SCCNCc3cc(N(C)C)ccn3)c3ccccc3C=Cc3ccccc32)cc1 | 0.099 µM | 17 µM
2 | CCC(C)(C)c1ccc(OCCCCN2CCN(c3ccncc3)CC2)cc1 | 15.2 µM | 28.5 µM
